Data reported in the RNAGym collection of RNA variant scans (doi:10.7554/elife.90254).
Read counts are not given, so values of variants with three or more changes are uncertain.

B1: OR4K15 (parent)
chain: GUUAACGGUCAUAGGCCAUGGAAACUAGGAGCACCAUUUCGCUGCCAGUGAAGAAAUGAACAAAGAAAAUCUGGGCCAGGCAGGCAUCAAAAGAAAUAGUCUUGCGCUCAACCAGAAAGUCUGUAAUCAUUUUAAGGGUA

Variants of: B1
Experiment: self-cleavage, relative activity (ratio to wild type); higher = more cleavage; in vitro, sequencing; the parent is a self-cleaving ribozyme
With GUUAACGGUCAUAGGCCAUGGAAACUAGGAGCACCAUUUCGCAGCCAGUGAAGAAAUGAACAAAGAAAAUCUGGGCCAGGCAGGCAUCAAAAGAAAUAGUCUUGCACUCAACCAGAAAGUCUGUAAUCAUUCUAAGGGUA [U43A G106A U132C] the self-cleavage was 0.03. Variant GUUAACGGUCAUAGGCCAUGGAAACUAGGAGCACCAUUUCGCCGCCAGUGAAGAGAUGAACAAAGAAAAUCUGGCCCAGGCAGGCAUCAAAAGAAAUAGUCUUGCGCUCAACCAGAAAGUCUGUAAUCAAUUUAAGGGUA [U43C A55G G75C U130A] has a self-cleavage of 0.11. For GUUAACGGUCAUAGGCCAUGGAAACUAGGAGCACCAUUUCGCAGCCAGUGAAGAAACGAACAAAGAAAAUCUGGGCCAGGCAGGCAUCAAAAGAAAUAGUCUUGCGCUCAACCAGAAAGUCUGUAAUCACUUUAAGGGUA [U43A U57C U130C], the self-cleavage was 1.44. Variant GUUAACGGUCAUAGGCCAUGGAAACUAGGAGCACCAUUUCGCCGCCAGUGAAGAAAUGGACAAAGAAAAUCUGGGCCAGGCGGGCAUCAAAAGAAAUAGUCUUGCGCUCAACCAGAAAGUCUGUAAUCAUUUUAAGGGUA [U43C A59G A82G] has a self-cleavage of 0.32. GUUAACGGUCAUAGGCCAUGGAAACUAGGAGCACCAUUUCGCCGCCAGUGAGGAAAUGAACAAAGAAAAUCUGGGCCGGGCAGGCAUCAAAAGAAAUAGUCUUGCGCUCAACCAGAAAGUCUGUAAUCAUUUUAAGGGUA [U43C A52G A78G] gave a self-cleavage of 0.47. Work on GUUAACGGUCAUAGGCCAUGGAAACUAGGAGCACCAUUUCGCCGCCAGUGAAGAAGAGAACAAAGAAAAUCUGGGCCAGGCAGGCAUCAAAAGAAAUAGCCUUGCGCUCAACCAGAAAGUCUGUAAUCAUUUUAAGGGUA [U43C A56G U57A U100C] yielded a self-cleavage of 1.61. In the case of GUUAACGGUCAUAGGCCAUGGAAACUAGGAGCACCAUUUCGCCGCCAGUGAAGGGAUGAACAAAGAAAAUCUGGGCCAGGCAGGCAUCAAUAGAAAUAGUCUUGCGCUCAACCAGAAAGUCUGUAAUCAUUUUAAGGGUA [U43C A54G A55G A91U], the self-cleavage is reported as 0.83. In the case of GUUAACGGUCAUAGGCCAUGGAAACUAGGAGCACCAUUUCGCCGCCAGUGAAGAAAUGGACAAAGAAAAUCUGGGCCAGGCAGGCACCAAAAGAAGUAGUCUUGCGCUCAACUAGAAAGUCUGUAAUCAUUUUAAGGGUA [U43C A59G U87C A96G C113U], the self-cleavage is reported as 0.01. GUUAACGGUCAUAGGCCAUGGAAACUAGGAGCACCAUUUCGCCGCCAGUGAGGAAAUGAACAAAGAAAAUCUGGGCCAGGCAGGCAUCAAAGGAAAUAGUCUUGCGCCCAACCAGAAAGUCUGUAAUCAUUUUAAGGGUA [U43C A52G A92G U108C] showed a self-cleavage of 0.01. For GUUAACGGUCAUAGGCCAUGGAAACUAGGAGCACCAUUUCGCCGCCAGUGAGGAAAUGAACAAAGAAAAUCAGGGCCAGGCAGGCAUCAAAAGAAAUAGUCUUGCGCUCACCCAGAAAGUCUGUAAUCAUUUUAAGGGUA [U43C A52G U72A A111C], the self-cleavage was 0.02. GUUAACGGUCAUAGGCCAUGGAAACUAGGAGCACCAUUUCGCCGCCAGUGGAGAAAUGAACAAAGAAAGUCUGGGCCAGGCAGGCUUCAAAAGAAAUAGUCAUGCGCUCAGCCAGAAAGUCUGUAAUCAUUUUAAGGGUA [U43C A51G A69G A86U U102A A111G] showed a self-cleavage of 0.02. For GUUAACGGUCAUAGGCCAUGGAAACUAGGAGCACCAUUUCGCAGCCAGUGAAGAAAUGAACAAAGAAAAUCUGGGCCAAGCAGGCAUCAAAAGAAAUAGGCUUGCGCUCAACCAGAAAGUCUGUAAUCGUUUUAAGGGUA [U43A G79A U100G A129G], the self-cleavage was 0.07. Variant GUUAACGGUCAUAGGCCAUGGAAACUAGGAGCACCAUUUCGCCGCCUGUGAAGAAAUGAACAAGGAAAAUCUGGGCCAGGCAGGCAUCAAAAGAAAUAGUCUUGUGCUCAACCAGAAAGUCUGUAAUCACUUUAAGGGUA [U43C A47U A64G C105U U130C] has a self-cleavage of 0.04. GUUAACGGUCAUAGGCCAUGGAAACUAGGAGCACCAUUUCGCAGCAAGUGAAGAAAUGAACAAAGAAAACCUGGGCCAGGCAGGCAUCAAAAGAAAUAGUCUUGCGCUCAACCAGAAAGUCUGUAAUCAUUUUAAGGGUA [U43A C46A U70C] showed a self-cleavage of 0.82. With GUUAACGGUCAUAGGCCAUGGAAACUAGGAGCACCAUUUCGCCGCCAGUGAGGAAAUGAACAAAGAAAAUCUGGGCCAGGCAGGCAUCAAAAGAAAUAGUCUUGCGCUCACCCAGAAAGUCUGUAAUCAUUUUAAGGGUA [U43C A52G A111C] the self-cleavage was 0.02. With GUUAACGGUCAUAGGCCAUGGAAACUAGGAGCACCAUUUCGCAGCCAGUGAAGAAAUGAACAAAGAAAAUCUGGGCCAGGCAGGCAUCAAAAGAAAUAGUCUUGCGCUCAACCGGAAAGUCUGUACUCAUUUUAGGGGUA [U43A A114G A126C A135G] the self-cleavage was 0. With GUUAACGGUCAUAGGCCAUGGAAACUAGGAGCACCAUUUCGCAGCCAGUGAAGAAAUGAACAAAGAAAAUCUGGGCCAGGCAGGCAUCAAAAGAAAUAGUCUCGCGCUCAACCAGAAGGUCUGUAAUCAUUUUAAGGGUG [U43A U103C A118G A140G] the self-cleavage was 0.13. With GUUAACGGUCAUAGGCCAUGGAAACUAGGAGCACCAUUUCGCCGCCAGUGAAGAAGUGAACAAAGAAAAUCUGGGCCAGGCAGGCAUCAAAAGAAAUAGUCUUGCGCUCAACCAGAAAGUCUGUAAUCAUUUUAGGGGUA [U43C A56G A135G] the self-cleavage was 1.69. For GUUAACGGUCAUAGGCCAUGGAAACUAGGAGCACCAUUUCGCCGCCAGUGAAGGGAUGAACAAGGAAAACCUGGGCCAGGCAGGCAUCAAAAGGAAUAGUCUUGCGCUCAACCAGAAAGUCUGUAAUCAUUUUAAGGGUA [U43C A54G A55G A64G U70C A94G], the self-cleavage was 0.35. With GUUAACGGUCAUAGGCCAUGGAAACUAGGAGCACCAUUUCGCAGCCAGUGAAGAAACGAACAAAGAAAAUCUGGGCCAGGCAGGCAUCAAAAGAAAUAGUCUUGCGCUCAACCCGAAAGUCUGUAAUCAUUUUAAGGGUA [U43A U57C A114C] the self-cleavage was 0.07. For GUUAACGGUCAUAGGCCAUGGAAACUAGGAGCACCAUUUCGCCGCCAGUGAAGAAAUGACCAAAGAAAAUCUGGUCCAGGCAGGCAUCAAAAGAAGUAGUCUUGCGCUCAACCAGUAAGUCAGUAAUCAUUUUAAGGGUA [U43C A60C G75U A96G A116U U122A], the self-cleavage was 0.03.
